# Data as given in the supplement of paper PMC4967469.
# Lines with a small IC50 respond at low doses; where the fit passes the top or lowest dose, that dose stands as a limit. AUC sums up the same curve from the lowest dose to the 256-fold higher top dose; it is 1 without any effect and falls as sensitivity rises. Where the top dose is marked as inferred, it is not printed in the source and was worked back from the curve model. For some of these results: Drugs with an entry number were screened twice under separate entries, and the two screens often disagree.
# What was measured:
# AICAR = compound: NC(=O)c1ncn([C@@H]2O[C@H](CO)[C@@H](O)[C@H]2O)c1N [AICAR]; experiment: Viability of human cancer cell lines after 72 h of drug (GDSC screen); details: top dose 2000 µM; top dose inferred
# Procedure: (§1)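 Human cancer cell lines in 384-well plates, medium with 10% serum, drug for 72 h over a 256-fold dose range (nine 2-fold or five 4-fold steps up to the top dose). Adherent lines were fixed and stained with the nucleic acid dye Syto60, suspension lines read with resazurin; signal relative to control wells, capped at 0 and 100%. One two-parameter sigmoid per drug and line, fitted in a mixed model over all curves with the slope shared within a line.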
# AKT inhibitor VIII = compound: O=c1[nH]c2ccccc2n1C1CCN(Cc2ccc(-c3[nH]c4cc5ncnc5cc4nc3-c3ccccc3)cc2)CC1 [AKT inhibitor VIII]; experiment: as above; details: top dose inferred
# Procedure: as §1
# [1] = top dose 2.56 µM, screen: GDSC drug entry 171
# [2] = top dose 10.24 µM, screen: GDSC drug entry 228
Cell Line,AUC (AICAR),IC50 (AICAR),AUC (AKT inhibitor VIII; [1]),IC50 (AKT inhibitor VIII; [1]),AUC (AKT inhibitor VIII; [2]),IC50 (AKT inhibitor VIII; [2])
"CAKI-1 (kidney, adherent)",0.853,> 2000 µM,0.96,> 2.56 µM,0.92,> 10.2 µM
"CHP-212 (neuroblastoma, adherent)",0.945,> 2000 µM,0.873,2.14 µM,0.731,2.73 µM
"ESO51 (oesophagus, semi-adherent)",0.771,1100 µM,,,0.911,> 10.2 µM
"EB2 (Burkitt lymphoma, suspension)",0.954,> 2000 µM,0.938,> 2.56 µM,0.341,0.243 µM
"SU-DHL-4 (B-cell lymphoma, suspension)",0.991,> 2000 µM,0.997,> 2.56 µM,0.803,3.51 µM
"EGI-1 (biliary tract, adherent)",0.9,> 2000 µM,0.923,> 2.56 µM,0.954,> 10.2 µM
"NCI-H524 (small cell lung carcinoma, suspension)",0.605,235 µM,0.99,> 2.56 µM,0.903,> 10.2 µM
"TT2609-C02 (thyroid, adherent)",0.827,1340 µM,0.867,> 2.56 µM,0.938,> 10.2 µM
"CAPAN-1 (pancreas, adherent)",0.938,> 2000 µM,0.966,> 2.56 µM,0.928,> 10.2 µM
"EKVX (lung adenocarcinoma, adherent)",0.883,> 2000 µM,0.88,> 2.56 µM,0.952,> 10.2 µM
"CADO-ES1 (Ewing sarcoma, suspension)",0.94,> 2000 µM,,,0.805,5.3 µM
"LCLC-103H (large cell lung carcinoma, adherent)",0.859,1410 µM,0.926,> 2.56 µM,0.917,> 10.2 µM
"ES5 (Ewing sarcoma, adherent)",0.897,> 2000 µM,0.882,> 2.56 µM,0.497,0.629 µM
"COLO-678 (large intestine, semi-adherent)",0.881,> 2000 µM,0.966,> 2.56 µM,0.958,> 10.2 µM
"NCI-H2029 (small cell lung carcinoma, adherent)",0.989,> 2000 µM,0.992,> 2.56 µM,0.962,> 10.2 µM
"OAW-42 (ovary, adherent)",0.967,> 2000 µM,0.918,> 2.56 µM,0.811,5.99 µM
"NTERA-2 cl.D1 (testis, adherent)",0.958,> 2000 µM,0.972,> 2.56 µM,0.958,> 10.2 µM
"UM-UC-3 (bladder, adherent)",0.914,> 2000 µM,0.975,> 2.56 µM,0.9,> 10.2 µM
"NU-DUL-1 (B-cell lymphoma, suspension)",0.608,232 µM,0.955,> 2.56 µM,0.564,0.921 µM
"OE33 (oesophagus, adherent)",0.822,1480 µM,0.799,1.51 µM,0.916,> 10.2 µM
"CESS (acute myeloid leukaemia, suspension)",0.902,1960 µM,0.875,1.92 µM,0.339,0.246 µM
"CHSA0011 (chondrosarcoma, adherent)",0.957,> 2000 µM,0.974,> 2.56 µM,0.924,> 10.2 µM
"VMRC-MELG (melanoma, adherent)",0.971,> 2000 µM,0.969,> 2.56 µM,0.988,> 10.2 µM
"Hep 3B2_1-7 (liver, adherent)",0.93,> 2000 µM,0.944,> 2.56 µM,0.987,> 10.2 µM
"EPLC-272H (lung squamous cell carcinoma, adherent)",0.739,667 µM,0.961,> 2.56 µM,0.823,7.09 µM
"NCI-H647 (non-small cell lung carcinoma, adherent)",0.873,> 2000 µM,0.917,> 2.56 µM,0.784,4.56 µM

Cell Line,AUC (AICAR),IC50 (AICAR),AUC (AKT inhibitor VIII; [1]),IC50 (AKT inhibitor VIII; [1]),AUC (AKT inhibitor VIII; [2]),IC50 (AKT inhibitor VIII; [2])
"DEL (lymphoid neoplasm, suspension)",0.905,1680 µM,0.98,> 2.56 µM,0.864,5.99 µM
"CAL-72 (osteosarcoma, adherent)",0.861,> 2000 µM,0.961,> 2.56 µM,0.982,> 10.2 µM
"KYSE-140 (oesophagus, adherent)",0.819,1340 µM,0.947,> 2.56 µM,0.877,> 10.2 µM
"JHOS-2 (ovary, adherent)",0.822,1440 µM,,,0.91,> 10.2 µM
"HCC2218 (breast, suspension)",0.936,> 2000 µM,0.91,> 2.56 µM,0.603,1.32 µM
"SBC-5 (small cell lung carcinoma, adherent)",0.834,980 µM,0.938,> 2.56 µM,0.983,> 10.2 µM
"C-4-I (cervix, adherent)",0.912,> 2000 µM,0.92,> 2.56 µM,0.978,> 10.2 µM
"NCI-H69 (small cell lung carcinoma, suspension)",0.877,> 2000 µM,0.982,> 2.56 µM,0.831,7.54 µM
"HN (head and neck, adherent)",0.675,372 µM,0.966,> 2.56 µM,0.989,> 10.2 µM
"LU-134-A (small cell lung carcinoma, suspension)",0.92,> 2000 µM,0.973,> 2.56 µM,0.887,> 10.2 µM
"BT-20 (breast, adherent)",0.832,1720 µM,0.876,> 2.56 µM,0.842,9.84 µM
"C32 (melanoma, adherent)",0.925,> 2000 µM,0.985,> 2.56 µM,0.987,> 10.2 µM
"U251 (glioma, adherent)",0.895,> 2000 µM,0.95,> 2.56 µM,0.924,> 10.2 µM
"K5 (thyroid, adherent)",0.86,1560 µM,0.982,> 2.56 µM,0.909,> 10.2 µM
"P30-OHK (lymphoblastic leukaemia, suspension)",0.526,145 µM,0.92,> 2.56 µM,0.486,0.589 µM
"K2 (melanoma, adherent)",0.982,> 2000 µM,0.971,> 2.56 µM,0.931,> 10.2 µM
"CA46 (Burkitt lymphoma, suspension)",0.877,> 2000 µM,0.965,> 2.56 µM,0.629,1.5 µM
"EC-GI-10 (oesophagus, adherent)",0.911,> 2000 µM,0.989,> 2.56 µM,0.989,> 10.2 µM
"KON (head and neck, adherent)",0.877,1940 µM,0.886,> 2.56 µM,0.98,> 10.2 µM
"AN3-CA (endometrium, adherent)",0.902,> 2000 µM,0.79,1.26 µM,0.826,7.01 µM
"RMG-I (ovary, adherent)",0.973,> 2000 µM,0.981,> 2.56 µM,0.819,7.12 µM
"UWB1.289 (ovary, adherent)",0.918,> 2000 µM,,,0.938,> 10.2 µM
"NCI-H1876 (small cell lung carcinoma, adherent)",0.924,> 2000 µM,0.987,> 2.56 µM,0.935,> 10.2 µM
"HuP-T4 (pancreas, adherent)",0.931,> 2000 µM,0.979,> 2.56 µM,0.769,4.11 µM
"Ca-Ski (cervix, adherent)",0.781,938 µM,0.865,> 2.56 µM,0.572,1.03 µM
"SW948 (large intestine, adherent)",0.966,> 2000 µM,0.973,> 2.56 µM,0.981,> 10.2 µM

Cell Line,AUC (AICAR),IC50 (AICAR),AUC (AKT inhibitor VIII; [1]),IC50 (AKT inhibitor VIII; [1]),AUC (AKT inhibitor VIII; [2]),IC50 (AKT inhibitor VIII; [2])
"PA-TU-8902 (pancreas, adherent)",0.81,1280 µM,0.944,> 2.56 µM,0.963,> 10.2 µM
"TE-12 (oesophagus, suspension)",0.655,372 µM,0.966,> 2.56 µM,0.737,3.59 µM
"ES6 (Ewing sarcoma, adherent)",0.954,> 2000 µM,0.89,> 2.56 µM,0.646,1.8 µM
"SF126 (glioma, adherent)",0.948,> 2000 µM,0.914,> 2.56 µM,0.937,> 10.2 µM
"JM1 (B-cell lymphoma, suspension)",0.771,661 µM,0.949,> 2.56 µM,0.901,9.98 µM
"NCI-H2023 (lung adenocarcinoma, adherent)",0.789,1130 µM,0.977,> 2.56 µM,0.848,> 10.2 µM
"PC-3 [JPC-3] (lung adenocarcinoma, adherent)",0.873,> 2000 µM,0.948,> 2.56 µM,0.887,> 10.2 µM
"PANC-02-03 (pancreas, adherent)",0.821,1480 µM,0.914,> 2.56 µM,0.94,> 10.2 µM
"MZ2-MEL (melanoma, adherent)",0.907,> 2000 µM,0.96,> 2.56 µM,0.713,2.87 µM
"HEC-1 (endometrium, adherent)",0.94,> 2000 µM,0.931,> 2.56 µM,0.971,> 10.2 µM
"RH-1 (rhabdomyosarcoma, adherent)",0.918,> 2000 µM,0.992,> 2.56 µM,0.761,3.08 µM
"PA-1 (ovary, adherent)",0.938,> 2000 µM,0.932,> 2.56 µM,0.741,2.58 µM
"EVSA-T (breast, adherent)",0.883,1610 µM,0.982,> 2.56 µM,0.643,1.5 µM
"HCC2157 (breast, suspension)",0.603,244 µM,0.9,> 2.56 µM,0.891,> 10.2 µM
"LNZTA3WT4 (glioma, adherent)",0.871,1830 µM,0.963,> 2.56 µM,0.976,> 10.2 µM
"A427 (non-small cell lung carcinoma, adherent)",0.941,> 2000 µM,0.895,> 2.56 µM,0.892,> 10.2 µM
"ETK-1 (biliary tract, adherent)",0.732,634 µM,0.893,> 2.56 µM,0.921,> 10.2 µM
"CHL-1 (melanoma, adherent)",0.87,1680 µM,0.958,> 2.56 µM,0.915,> 10.2 µM
"HOS (osteosarcoma, adherent)",0.905,1910 µM,0.964,> 2.56 µM,0.95,> 10.2 µM
"LU-165 (small cell lung carcinoma, suspension)",0.988,> 2000 µM,0.982,> 2.56 µM,0.762,4.1 µM
"H2595 (mesothelioma, adherent)",0.978,> 2000 µM,0.939,> 2.56 µM,0.921,> 10.2 µM
"PSN1 (pancreas, adherent)",0.815,888 µM,0.988,> 2.56 µM,0.937,> 10.2 µM
"IA-LM (large cell lung carcinoma, adherent)",0.78,927 µM,0.86,> 2.56 µM,0.876,> 10.2 µM
"RXF393 (kidney, adherent)",0.834,> 2000 µM,0.919,> 2.56 µM,0.826,9.74 µM
